In all, about 33,000 sequences were measured (“E-score (-0.5 to 0.5)”: median about -0.021, highest 2% from about 0.32 on). The list shows a part of the results.
What follows are sequences tested against T1, Zap1 (UniProt P47043) (assay: PBM E-score (8-mer binding enrichment) (E-score (-0.5 to 0.5)); higher = stronger / more preferred TF binding; most listed sequences are background and not binding sites). Conditions: protein concentration: 200 nM; construct: GST-full length.
T1 sequence: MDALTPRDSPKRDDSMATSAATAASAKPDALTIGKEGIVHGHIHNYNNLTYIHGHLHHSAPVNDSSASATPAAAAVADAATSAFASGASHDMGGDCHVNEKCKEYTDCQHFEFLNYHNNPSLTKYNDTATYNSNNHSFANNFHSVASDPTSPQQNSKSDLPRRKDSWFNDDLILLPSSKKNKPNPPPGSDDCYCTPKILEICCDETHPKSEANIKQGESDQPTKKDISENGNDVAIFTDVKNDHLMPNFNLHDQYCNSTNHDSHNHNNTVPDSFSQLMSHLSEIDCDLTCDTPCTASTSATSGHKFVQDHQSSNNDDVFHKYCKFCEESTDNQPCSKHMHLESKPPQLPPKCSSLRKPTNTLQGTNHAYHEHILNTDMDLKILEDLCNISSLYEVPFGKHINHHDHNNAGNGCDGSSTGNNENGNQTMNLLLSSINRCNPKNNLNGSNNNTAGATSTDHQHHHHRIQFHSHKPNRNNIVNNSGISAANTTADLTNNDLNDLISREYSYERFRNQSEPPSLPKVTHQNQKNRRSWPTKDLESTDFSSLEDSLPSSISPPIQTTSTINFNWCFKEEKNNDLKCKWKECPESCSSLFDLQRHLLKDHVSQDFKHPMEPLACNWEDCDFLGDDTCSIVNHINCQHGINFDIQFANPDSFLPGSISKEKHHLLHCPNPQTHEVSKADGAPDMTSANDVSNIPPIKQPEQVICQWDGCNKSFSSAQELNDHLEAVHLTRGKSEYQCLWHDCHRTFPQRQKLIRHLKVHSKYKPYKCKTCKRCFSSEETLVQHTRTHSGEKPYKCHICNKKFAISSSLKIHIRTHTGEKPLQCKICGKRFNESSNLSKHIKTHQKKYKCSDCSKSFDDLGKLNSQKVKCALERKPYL
Outline: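 Each ungapped eight-base word and its reverse complement, pooled, received an E-score from the Universal PBM Analysis Suite. Underlying scans, normalised with masliner, recorded fluorescent anti-GST bound to GST-tagged yeast transcription factors. These were applied at about 100-200 nM to universal all-10-mer Agilent arrays double-stranded by primer extension.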

Row | Sequence | PBM E-score
1 | CTGTGTCA | -0.107
2 | GCAGTAGA | -0.159
3 | CCTATTAC | 0.115
4 | CGCGATCA | 0.0401
5 | CTCTCCAC | -0.209
6 | AATCCAAC | -0.0925
7 | ACGTTTCT | -0.292
8 | GCGAATGA | 0.0463
9 | AGGTGGTA | 0.172
10 | ACGACCCT | 0.348
11 | CACCTCTG | -0.0642
12 | AACACACG | -0.0306
13 | TGCACCAA | -0.199
14 | AACGTTGA | 0.0837
15 | AGGCTGCC | -0.127
16 | TATGTTCA | 0.116
17 | CATACACC | -0.03
18 | CAAGGGTA | 0.398
19 | ATTGCCTC | -0.149
20 | CGATTGTA | 0.11
21 | CTCGATTA | 0.0137
22 | CGGGCGTC | -0.118

Row | Sequence | PBM E-score
23 | CGGAGAGC | -0.282
24 | AGCTAAAT | -0.123
25 | ATATGGCC | -0.016
26 | GAAAACTA | 0.1
27 | AGAGTTGC | -0.0946
28 | ACGTGGCT | -0.184
29 | GGAAACAC | 0.121
30 | GCAAGGCA | -0.288
31 | AATGCTTG | -0.188
32 | TTGCTAAA | -0.0992
33 | GTCCGCCA | -0.022
34 | GCAGATGC | -0.337
35 | TAACAAAA | 0.233
36 | AAGCCAAT | -0.015
37 | CACAGGCG | -0.236
38 | TCGTTGCA | -0.0835
39 | GGCCACAC | 0.0649
40 | ACATTGTA | -0.038
41 | GCCGCAGA | -0.11
42 | CATTTCAG | -0.0373
43 | GCTCGCCA | -0.11
44 | ACTGGTAA | 0.252

Row | Sequence | PBM E-score
45 | GCTCCCAA | -0.0337
46 | AAACGTGA | 0.0665
47 | AGCAGTTG | -0.153
48 | ACCAGCTA | -0.108
49 | ATTATCCC | 0.0804
50 | ATGCGCAA | -0.0977
51 | CGTGAAAG | 0.1
52 | ACTGCCCA | -0.154
53 | CTAAGTGC | -0.0535
54 | CCATAGGG | 0.236
55 | GTCTGCGA | -0.158
56 | AGATGATC | -0.0279
57 | AGTCGTCG | -0.277
58 | CGTCATTC | 0.0455
59 | TGCAAGCA | -0.156
60 | CATGCTCA | -0.0306
61 | AGCCTTCG | -0.341
62 | CATGCCTC | -0.192
63 | CAGGCAGA | -0.186
64 | GTAGCTAA | 0.118
65 | CTAGCGGC | -0.299
66 | AGTAGGCC | -0.174

Row | Sequence | PBM E-score
67 | AACTGGTC | 0.0163
68 | GCCGCGTA | -0.113
69 | AGAGGGTG | 0.229
70 | CGAGGATA | -0.0862
71 | ATCGTGGA | 0.063
72 | GAAGCGAC | -0.241
73 | AAGCCTAT | -0.203
74 | AACCAAGG | 0.276
75 | GCCTCAAA | 0.00889
76 | AAAGGCGT | -0.183
77 | CTGCAGGC | -0.27
78 | GCTAAACA | 0.0333
79 | CTATGCCA | -0.139
80 | GGTTATAA | 0.471
81 | CAACCACG | 0.123
82 | GGTTAAAC | 0.356
83 | CGTAGTTC | -0.125
84 | ATTTGGGC | -0.0897
85 | GCCGAGGC | -0.0423
86 | ATCGCTTC | -0.0638

Reference: the supplement of paper PMC3334620
